The supplement of paper PMC5499739
Whole data set: some 16,000 sequences, median “Z-score” near -0.37, cut for the highest 2% near 3.1. The list shows a part of the results.

System: RBM10 RRM1-ZnF-RRM2 (GST-tagged construct)
Experiment: RNAcompete 7-mer binding Z-score; higher = stronger binding preference
In short: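 In 1 ml Hepes pH 7.8 buffer with KCl, NaCl, glycerol, DTT, BSA and glutathione Sepharose beads, GST-tagged RBM10 constructs (20 pmol) were incubated for 30 min at 4°C with 1.5 nmol of a designed pool of 241 399 RNAs up to 41 nt. Four 2-min washes at 4°C followed, and bound RNA was detected by microarray hybridisation. Heptamer motif enrichment was expressed as a one-sided Z-score across probes containing each motif.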

| Sequence | RNAcompete 7-mer binding Z-score |
| --- | --- |
| UAAUCUU | -0.697 |
| UGGGCUC | 0.778 |
| UAUUGUA | -0.446 |
| AUCCAAC | -0.755 |
| CCACCUA | -0.686 |
| CAGUGAC | -0.366 |
| GCUCCUC | -0.613 |
| AGUUGGU | 1.56 |
| UAAUAUG | -0.176 |
| UAUACCG | -0.511 |
| AUGCACC | -0.77 |
| GACUCUA | -0.715 |
| AUCCUAA | -0.905 |
| AACUUCG | -0.592 |
| CGCUUAU | -0.81 |
| GCCUAGA | -0.712 |
| GCAACGU | 0.0859 |
| CCUUUCG | -0.857 |
| AGUGGUU | 2.16 |
| GGUUCCA | 0.239 |
| GUCUGCG | -0.42 |
| CCCGCGG | 0.232 |
| GGUUGUU | 0.654 |

| Sequence | RNAcompete 7-mer binding Z-score |
| --- | --- |
| GUGACCG | 0.133 |
| GCUGAGU | 0.0131 |
| CGGGUCU | 0.432 |
| CCGAAUG | -0.657 |
| UUAUCGU | -0.449 |
| AGCCCUC | -0.905 |
| UGGAACC | 0.683 |
| AGCCAAU | -0.195 |
| ACUGUAG | -0.133 |
| UCUUCGU | -0.606 |
| UAACCGC | -0.635 |
| GACCACA | -0.453 |
| GAGUAGC | 0.443 |
| GACUGUA | -0.5 |
| CGAGUGG | 2.32 |
| CCCUUUC | -0.887 |
| UUGCAGG | 0.603 |
| CGUCUCC | -0.657 |
| CUCGAAC | -0.726 |
| UUCCGGC | -0.683 |
| GGUGCCU | 0.0823 |
| CCCCUCG | -0.573 |
| UUUUGUU | -0.544 |

| Sequence | RNAcompete 7-mer binding Z-score |
| --- | --- |
| GCCUGGG | 0.275 |
| AUAGAAC | 0.29 |
| GCCUGUC | -0.73 |
| CAUUCCA | -0.697 |
| GGCAUUG | 0.669 |
| ACUGUAC | -0.748 |
| AUACAUC | -0.533 |
| UCAAACG | -0.326 |
| AUUGUAC | -0.584 |
| GAUUGGC | 0.927 |
| CGGCAUU | -0.398 |
| UGUUACC | -0.668 |
| UCGACCA | -0.566 |
| UAAGUGU | 0.00216 |
| UCUACAC | -0.653 |
| CCAGAUU | -0.799 |
| UCAGCCC | -0.737 |
| GAGUCAC | 0.00944 |
| UACGCAU | -0.286 |
| CACCAGC | -0.562 |
| AAUUCUA | -0.602 |
| AAGCUUC | -0.679 |
| ACUCGCU | -0.712 |

| Sequence | RNAcompete 7-mer binding Z-score |
| --- | --- |
| CUUCUUA | -0.755 |
| CUUGCUC | -0.89 |
| UAGCCUG | -0.788 |
| GACGAAA | 0.33 |
| UACUACG | -0.522 |
| GAUUCUG | -0.537 |
| UAAGUUU | -0.464 |
| UUAGACA | -0.147 |
| AGGUAGA | 2.42 |
| CGCAGGG | 1.78 |
| UAAUACC | -0.599 |
| UCAGGGC | 1.11 |
| GAGUAAA | 0.796 |
| GUUGACU | -0.242 |
| GCAUAAG | 0.115 |
| AGAAUCC | -0.803 |
| GCGAAAU | -0.0488 |
| UUGAUCA | -0.435 |
| UGUCAAA | -0.369 |
| AGUUCCU | -0.77 |
| AUGCAAU | 0.0532 |
| GUCAGGG | 1.81 |
| UUAAAAU | -0.482 |

| Sequence | RNAcompete 7-mer binding Z-score |
| --- | --- |
| AGAGAAG | 1.63 |
| CCGUGGC | -0.067 |
| CAUCAUG | -0.548 |
| GGGUGGG | 4.11 |
| UCGGCAC | -0.431 |
| UCACUCU | -0.89 |
| UGGCCCC | -0.333 |
| UUCGUAU | -0.592 |
| CCAACUA | -0.668 |
| GAUCUAA | -0.584 |
| AUAUCAG | -0.136 |
| GGCUCGG | 0.581 |
| GGAGCGG | 4.19 |
| GAGAAGC | 0.614 |
| CACUCAU | -0.89 |
| AAAACUC | -0.748 |
| UCGCAGU | -0.449 |
| GCUACAU | -0.402 |
| GCGGUAG | 1.58 |
| GGGCACG | 2.22 |
| UCUGUCA | -0.635 |
| ACACGAA | -0.275 |
| UCGGUCU | -0.653 |

| Sequence | RNAcompete 7-mer binding Z-score |
| --- | --- |
| GAACUAC | -0.595 |
| AUGGGUG | 3.74 |
| GGGAUCG | 1.93 |
| GUCUCAG | -0.511 |
| AGGAAGU | 1.21 |
| UUUUCAC | -0.723 |
| CCCUUGA | -0.919 |
| CAAAGCC | -0.81 |
| AGAGUUG | 0.53 |
| CAGUGUA | 0.111 |
| AUAGUUA | -0.078 |
| CAUCACG | -0.508 |
| AAAUACC | -0.599 |
| CCGUCAA | -0.592 |
| AGUUAGC | -0.0743 |
| CUGGAGG | 1.11 |
| CGGCACA | 0.133 |
| UAGCUCU | -0.715 |
| AAUCCGG | -0.213 |
| UCCUUAG | -0.672 |
| GGCUUUU | -0.449 |
| GCGUAGU | 0.374 |
| GGGUCGC | 1.14 |

| Sequence | RNAcompete 7-mer binding Z-score |
| --- | --- |
| ACUGCGC | -0.643 |
| GCUAGAC | -0.34 |
| CAAUUCG | -0.355 |
| GAAACCA | -0.00512 |
| AGGUACG | 0.909 |
| CCAAGUG | -0.133 |
| CUUAACA | -0.726 |
| CUUGAGU | -0.73 |
| UUAGAGG | 1.24 |
| AGAGUUC | -0.369 |
| UCUGUUU | -0.704 |
| UGAAUAG | 0.399 |
| GAAAGCA | 0.49 |
| GGGCGCC | 0.13 |
| GCACCGG | 0.61 |
| CCCUCUG | -0.737 |
| UUCUUGC | -0.93 |
| GCGUACG | 0.221 |
| AGUUGCG | 0.166 |
| CGUGGUA | 0.589 |
| AAUGCGC | -0.38 |
| AGGAGGG | 3.31 |
| CCUGCUC | -1.02 |

| Sequence | RNAcompete 7-mer binding Z-score |
| --- | --- |
| GAAAGGU | 4.42 |
| GCCCUAU | -0.945 |
| CUACACC | -0.683 |
| CAUCUAA | -0.723 |
| CUACCUA | -0.748 |
| GUGCGCA | 0.428 |
| GAUCCUA | -0.701 |
| GUGAAUU | 0.162 |
| GGGUGAU | 3.16 |
| CCGACUA | -0.606 |
| CGCACCA | -0.744 |
| AGGAAAG | 2.81 |
| GGUACAA | 1.81 |
| AACCGUA | -0.653 |
| AUCGAUC | -0.562 |
| GUGCAGG | 2.24 |
| ACUAACA | -0.428 |
| UUUACAU | -0.57 |
| AUUUUAG | -0.628 |
| GACUCCG | -0.679 |
| UUAGAAG | 0.126 |
| GGGGGAG | 2.6 |
